Experimental data reported in the supplement of paper PMC8728848.
This is one part of the list.

Columns and labels:
Test in all cases: glycan array binding signal (z-score within array); higher = stronger binding
Conditions in all cases: glycan notation: IUPAC condensed, linker removed
[1] = biological target: GlcNAc(b1-4)GlcNAc(b1-4)GlcNAc
Summary of the method: (§1)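 The Consortium for Functional Glycomics database supplied 3228 glycan arrays, of which those lacking an available protein sequence were dropped. The binding signal, a within-array Z-score, was averaged across arrays of the same protein sequence and across linkers. Negative scores can be read as non-binding.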

[2] = biological target: GlcNAc(b1-4)GlcNAc(b1-4)GlcNAc(b1-4)GlcNAc(b1-4)GlcNAc
Summary of the method: as §1

[3] = biological target: GlcNAc(b1-4)GlcNAc(b1-4)GlcNAc(b1-4)GlcNAc(b1-4)GlcNAc(b1-4)GlcNAc
Summary of the method: as §1

[4] = biological target: GlcNAc(b1-4)[GlcNAc(b1-6)]GalNAc
Summary of the method: as §1

[5] = biological target: GlcNAc(b1-6)Gal(b1-4)GlcNAc
Summary of the method: as §1

GlcNAc(b1-6)GalNAc = biological target: GlcNAc(b1-6)GalNAc
Summary of the method: as §1

GlcNAc3Prop(b1-4)GlcNAc = biological target: GlcNAc3Prop(b1-4)GlcNAc
Summary of the method: as §1

[6] = biological target: GlcNAc6S(b1-3)Gal(b1-4)GlcNAc
Summary of the method: as §1

Kdn(a2-3)Gal(b1-3)GalNAc = biological target: Kdn(a2-3)Gal(b1-3)GalNAc
Summary of the method: as §1

Kdn(a2-3)Gal(b1-3)GlcNAc = biological target: Kdn(a2-3)Gal(b1-3)GlcNAc
Summary of the method: as §1

Kdn(a2-3)Gal(b1-4)Glc = biological target: Kdn(a2-3)Gal(b1-4)Glc
Summary of the method: as §1

Kdn(a2-3)Gal(b1-4)GlcNAc = biological target: Kdn(a2-3)Gal(b1-4)GlcNAc
Summary of the method: as §1

[7] = biological target: Kdn(a2-3)Gal(b1-4)[Fuc(a1-3)]GlcNAc
Summary of the method: as §1

Kdn(a2-6)Gal(b1-4)GlcNAc = biological target: Kdn(a2-6)Gal(b1-4)GlcNAc
Summary of the method: as §1

[8] = biological target: Man(a1-2)Man(a1-2)Man(a1-3)Man
Summary of the method: as §1

[9] = biological target: Man(a1-2)Man(a1-2)Man(a1-6)[Man(a1-3)]Man
Summary of the method: as §1

Man(a1-2)Man(a1-3)Man = biological target: Man(a1-2)Man(a1-3)Man
Summary of the method: as §1

[10] = biological target: Man(a1-2)Man(a1-3)[Man(a1-2)Man(a1-6)]Man
Summary of the method: as §1

[11] = biological target: Man(a1-2)Man(a1-3)[Man(a1-2)Man(a1-6)]Man(a1-6)[Man(a1-2)Man(a1-2)Man(a1-3)]Man
Summary of the method: as §1

[12] = biological target: Man(a1-2)Man(a1-3)[Man(a1-2)Man(a1-6)]Man(a1-6)[Man(a1-2)Man(a1-2)Man(a1-3)]Man(b1-4)GlcNAc(b1-4)GlcNAc
Summary of the method: as §1

[13] = biological target: Man(a1-2)Man(a1-3)[Man(a1-6)]Man(a1-6)[Man(a1-2)Man(a1-3)]Man(b1-4)GlcNAc(b1-4)GlcNAc
Summary of the method: as §1

[14] = biological target: Man(a1-2)Man(a1-6)[Man(a1-3)]Man(a1-6)[Man(a1-2)Man(a1-2)Man(a1-3)]Man
Summary of the method: as §1

[15] = biological target: Man(a1-2)Man(a1-6)[Man(a1-3)]Man(a1-6)[Man(a1-2)Man(a1-2)Man(a1-3)]Man(b1-4)GlcNAc(b1-4)GlcNAc
Summary of the method: as §1

Man(a1-3)[Man(a1-6)]Man = biological target: Man(a1-3)[Man(a1-6)]Man
Summary of the method: as §1

[16] = biological target: Man(a1-3)[Man(a1-6)]Man(a1-6)[Man(a1-2)Man(a1-3)]Man(b1-4)GlcNAc(b1-4)GlcNAc
Summary of the method: as §1

[17] = biological target: Man(a1-3)[Man(a1-6)]Man(a1-6)[Man(a1-3)]Man
Summary of the method: as §1

[18] = biological target: Man(a1-3)[Man(a1-6)]Man(a1-6)[Man(a1-3)]Man(b1-4)GlcNAc(b1-4)GlcNAc
Summary of the method: as §1

[19] = biological target: Man(a1-3)[Man(a1-6)]Man(b1-4)GlcNAc(b1-4)GlcNAc
Summary of the method: as §1

Man(a1-6)Man = biological target: Man(a1-6)Man
Summary of the method: as §1

Man(b1-4)GlcNAc = biological target: Man(b1-4)GlcNAc
Summary of the method: as §1

Neu5Ac(a2-3)Gal = biological target: Neu5Ac(a2-3)Gal
Summary of the method: as §1

[20] = biological target: Neu5Ac(a2-3)Gal(b1-3)GalNAc
Summary of the method: as §1

[21] = biological target: Neu5Ac(a2-3)Gal(b1-3)GalNAc(b1-3)Gal(a1-4)Gal(b1-4)Glc
Summary of the method: as §1

[22] = biological target: Neu5Ac(a2-3)Gal(b1-3)GalNAc(b1-4)[Neu5Ac(a2-3)]Gal(b1-4)Glc
Summary of the method: as §1

[23] = biological target: Neu5Ac(a2-3)Gal(b1-3)GalNAc(b1-4)[Neu5Ac(a2-8)Neu5Ac(a2-3)]Gal(b1-4)Glc
Summary of the method: as §1

[24] = biological target: Neu5Ac(a2-3)Gal(b1-3)GalNAc6S
Summary of the method: as §1

[25] = biological target: Neu5Ac(a2-3)Gal(b1-3)GlcNAc
Summary of the method: as §1

[26] = biological target: Neu5Ac(a2-3)Gal(b1-3)GlcNAc(b1-3)Gal(b1-3)GlcNAc
Summary of the method: as §1

[27] = biological target: Neu5Ac(a2-3)Gal(b1-3)GlcNAc(b1-3)Gal(b1-4)GlcNAc
Summary of the method: as §1

[28] = biological target: Neu5Ac(a2-3)Gal(b1-3)GlcNAc(b1-3)GalNAc
Summary of the method: as §1

B1: GNAT (Pseudomonas aeruginosa), Q9HV14 (protein)
chain: MQLSHRPAETGDLETVAGFPQDRDELFYCYPKAIWPFSVAQLAAAIAERRGSTVAVHDGQVLGFANFYQWQHGDFCALGNMMVAPAARGLGVARYLIGVMENLAREQYKARLMKISCFNANAAGLLLYTQLGYQPRAIAERHDPDGRRVALIQMDKPLEP
[1]
  glycan array binding signal (z-score): -0.363
[2]
  glycan array binding signal (z-score): -0.401
[3]
  glycan array binding signal (z-score): -0.423
[4]
  glycan array binding signal (z-score): -0.407
[5]
  glycan array binding signal (z-score): -0.392
GlcNAc(b1-6)GalNAc
  glycan array binding signal (z-score): -0.336
GlcNAc3Prop(b1-4)GlcNAc
  glycan array binding signal (z-score): -0.366
[6]
  glycan array binding signal (z-score): 0.159
Kdn(a2-3)Gal(b1-3)GalNAc
  glycan array binding signal (z-score): -0.04
Kdn(a2-3)Gal(b1-3)GlcNAc
  glycan array binding signal (z-score): -0.345
Kdn(a2-3)Gal(b1-4)Glc
  glycan array binding signal (z-score): -0.434
Kdn(a2-3)Gal(b1-4)GlcNAc
  glycan array binding signal (z-score): -0.376
[7]
  glycan array binding signal (z-score): -0.233
Kdn(a2-6)Gal(b1-4)GlcNAc
  glycan array binding signal (z-score): -0.436
[8]
  glycan array binding signal (z-score): -0.406
[9]
  glycan array binding signal (z-score): -0.311
Man(a1-2)Man(a1-3)Man
  glycan array binding signal (z-score): -0.409
[10]
  glycan array binding signal (z-score): -0.44
[11]
  glycan array binding signal (z-score): -0.218
[12]
  glycan array binding signal (z-score): -0.327
[13]
  glycan array binding signal (z-score): -0.403
[14]
  glycan array binding signal (z-score): -0.075
[15]
  glycan array binding signal (z-score): -0.196
Man(a1-3)[Man(a1-6)]Man
  glycan array binding signal (z-score): -0.205
[16]
  glycan array binding signal (z-score): 0.122
[17]
  glycan array binding signal (z-score): -0.393
[18]
  glycan array binding signal (z-score): -0.351
[19]
  glycan array binding signal (z-score): -0.361
Man(a1-6)Man
  glycan array binding signal (z-score): -0.294
Man(b1-4)GlcNAc
  glycan array binding signal (z-score): -0.269
Neu5Ac(a2-3)Gal
  glycan array binding signal (z-score): -0.39
[20]
  glycan array binding signal (z-score): -0.337
[21]
  glycan array binding signal (z-score): -0.419
[22]
  glycan array binding signal (z-score): -0.287
[23]
  glycan array binding signal (z-score): -0.155
[24]
  glycan array binding signal (z-score): -0.233
[25]
  glycan array binding signal (z-score): -0.433
[26]
  glycan array binding signal (z-score): 0.004
[27]
  glycan array binding signal (z-score): -0.398
[28]
  glycan array binding signal (z-score): -0.316
